The values below come from US20250304706A1 (Astellas, published 2025).

The assay deals with T1, CD3εδ complex protein (human; alpaca, UniProt P07766 23-126; P04234 22-105).
T1 construct: they are not part of the secreted protein; also called human CD3; CD386 complex protein
In words: ELISA, CD3 complex immobilized. On the procedure:
Binding activities of the anti-TSPAN8/anti-CD3 bispecific antibodies BTE-0001 to BTE-0067 to CD3 were evaluated by the ELISA. ELISA was performed according to a conventional method. The […] complex protein obtained in Example 1-3 was immobilized on a plate. BTE-0001 to BTE-0067 were used as the test antibodies. As a secondary antibody, Goat anti-Human IgG Fc, Multi-Species SP ads-HRP (2014-05, available from SouthernBiotech) was used. TMB+Substrate-Chromogen (S1599, available from Dako) was used as the detection reagent. Infinite M200pro (available from Tecan) was used to measure the absorbance. The EC50 values were calculated using variable slope model (four parameters) in GraphPad Prism with the maximum value in the same plate fixed at the top and the minimum value in the blank in the same plate fixed at the bottom. Since BTE-0001 was always measured in each plate as a control, only the EC50 value of BTE-0001 was expressed as the average value of a plurality of plates.
Binding activities of the 66 anti-TSPAN8/anti-CD3 bispecific antibodies to CD3 were evaluated by the ELISA described in Example 1-4.
(In an ELISA, binding on a coated surface is turned into a signal by an enzyme label.)

Chain of UniProt P07766 (P07766 23-126 limits assumed, stated change not applied, form in doubt, chain 1 of 2): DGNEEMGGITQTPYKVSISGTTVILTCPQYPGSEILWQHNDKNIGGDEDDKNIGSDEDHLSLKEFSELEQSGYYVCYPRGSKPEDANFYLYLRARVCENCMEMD
Chain of UniProt P07766 (P04234 22-105 limits assumed, stated change not applied, form in doubt, chain 2 of 2, further chain): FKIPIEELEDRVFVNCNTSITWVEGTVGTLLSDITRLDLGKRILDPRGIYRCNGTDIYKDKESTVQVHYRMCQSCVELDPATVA

B1: BTE-0072 (bispecific antibody)
heavy: QVQLVESGGGVVQPGGSLRLSCAASGFTFSSYGMHWVRQAPGKGLEWVAVIWYDGRNKYYADSVKGRFTISRDNSKNTLYLQMNSLRAEDTAVYYCTRDHSGSGSYYIDYWGQGTLVTVSSASTKGPSVFPLAPSSKSTSGGTAALGCLVKDYFPEPVTVSWNSGALTSGVHTFPAVLQSSGLYSLSSVVTVPSSSLGTQTYICNVNHKPSNTKVDKKVEPKSCDKTHTCPPCPAPEAAGGPSVFLFPPKPKDTLMISRTPEVTCVVVDVSHEDPEVKFNWYVDGVEVHNAKTKPREEQYNSTYRVVSVLTVLHQDWLNGKEYKCKVSNKALAAPIEKTISKAKGQPREPQVYTLPPSRDELTKNQVSLSCAVKGFYPSDIAVEWESNGQPENNYKTTPPVLDSDGSFFLVSKLTVDKSRWQQGNVFSCSVMHEALHNHYTQKSLSLSPGK
light: EIAMTQSPATLSVSPGERATLSCRASQSVSSNLAWYQQKPGQAPRLLIYGASTRATGLPARFSGSGSGTEFTLTISSLQSEDFAVYYCQQYNNFWTFGQGTKVEIKRTVAAPSVFIFPPSDEQLKSGTASVVCLLNNFYPREAKVQWKVDNALQSGNSQESVTEQDSKDSTYSLSSTLTLSKADYEKHKVYACEVTHQGLSSPVTKSFNRGEC
scFv-Fc: EVQLVESGGGLIQPGGSLRLSCAASGFTFNTYAMHWVRQAPGKGLEWVARIRSKYNNYATYYADSVKDRFTISRDDSKSTLYLQMNNLRAEDTAVYYCVRHGNFGDSYVSWFAYWGQGTLVTVSSGKPGSGKPGSGKPGSGKPGSQAVVTQEPSLTVSPGGTVTLTCRSSTGAVTTSNYANWVQQKPGQAPRGLIGGTNKRAPGTPARFSGSLLGDKAALTLSGAQPEDEAEYYCALWYSNLWVFGGGTKVTVL[human IgG1 Fc with C220S L234A L235A P329A T366W (EU numbers) cut from this listing]
notes: anti-TSPAN8/anti-CD3
In turn, B1 came in with an EC50 of 1.64 µg/mL.

B2: BTE-0083 (bispecific antibody)
heavy: QVQLVESGGGVVQPGGSLRLSCAASGFTFSSYGMHWVRQAPGKGLEWVAVIWYDGRNKYYADSVKGRFTISRDNSKNTLYLQMNSLRAEDTAVYYCTRDHSGSGSYYIDYWGQGTLVTVSSASTKGPSVFPLAPSSKSTSGGTAALGCLVKDYFPEPVTVSWNSGALTSGVHTFPAVLQSSGLYSLSSVVTVPSSSLGTQTYICNVNHKPSNTKVDKKVEPKSCDKTHTCPPCPAPEAAGGPSVFLFPPKPKDTLMISRTPEVTCVVVDVSHEDPEVKFNWYVDGVEVHNAKTKPREEQYNSTYRVVSVLTVLHQDWLNGKEYKCKVSNKALAAPIEKTISKAKGQPREPQVYTLPPSRDELTKNQVSLSCAVKGFYPSDIAVEWESNGQPENNYKTTPPVLDSDGSFFLVSKLTVDKSRWQQGNVFSCSVMHEALHNHYTQKSLSLSPGK
light: EIAMTQSPATLSVSPGERATLSCRASQSVSSNLAWYQQKPGQAPRLLIYGASTRATGLPARFSGSGSGTEFTLTISSLQSEDFAVYYCQQYNNFWTFGQGTKVEIKRTVAAPSVFIFPPSDEQLKSGTASVVCLLNNFYPREAKVQWKVDNALQSGNSQESVTEQDSKDSTYSLSSTLTLSKADYEKHKVYACEVTHQGLSSPVTKSFNRGEC
scFv-Fc: EVQLVESGGGLIQPGGSLRLSCAASGFTFNTYAMHWVRQAPGKGLEWVARIRSKYNNYATYYADSVKDRFTISRDDSKSTLYLQMNNLRAEDTAVYYCVRHGNFGNSYVSWFAYWGQGTLVTVSSGKPGSGKPGSGKPGSGKPGSQAVVTQEPSLTVSPGGTVTLTCRSSTGAVTTSNYANWVQQKPGQAPRGLIGGTNKRAPGVPARFSGSLLGDKAALTLSGAQPEDEAEYYCALWYSNLWVFGGGTKVTVL[human IgG1 Fc with C220S L234A L235A P329A T366W (EU numbers) cut from this listing]
notes: anti-TSPAN8/anti-CD3
Molecule B2 gave an EC50 of 0.165 µg/mL.

B3: BTE-0073 (bispecific antibody)
heavy: QVQLVESGGGVVQPGGSLRLSCAASGFTFSSYGMHWVRQAPGKGLEWVAVIWYDGRNKYYADSVKGRFTISRDNSKNTLYLQMNSLRAEDTAVYYCTRDHSGSGSYYIDYWGQGTLVTVSSASTKGPSVFPLAPSSKSTSGGTAALGCLVKDYFPEPVTVSWNSGALTSGVHTFPAVLQSSGLYSLSSVVTVPSSSLGTQTYICNVNHKPSNTKVDKKVEPKSCDKTHTCPPCPAPEAAGGPSVFLFPPKPKDTLMISRTPEVTCVVVDVSHEDPEVKFNWYVDGVEVHNAKTKPREEQYNSTYRVVSVLTVLHQDWLNGKEYKCKVSNKALAAPIEKTISKAKGQPREPQVYTLPPSRDELTKNQVSLSCAVKGFYPSDIAVEWESNGQPENNYKTTPPVLDSDGSFFLVSKLTVDKSRWQQGNVFSCSVMHEALHNHYTQKSLSLSPGK
light: EIAMTQSPATLSVSPGERATLSCRASQSVSSNLAWYQQKPGQAPRLLIYGASTRATGLPARFSGSGSGTEFTLTISSLQSEDFAVYYCQQYNNFWTFGQGTKVEIKRTVAAPSVFIFPPSDEQLKSGTASVVCLLNNFYPREAKVQWKVDNALQSGNSQESVTEQDSKDSTYSLSSTLTLSKADYEKHKVYACEVTHQGLSSPVTKSFNRGEC
scFv-Fc: EVQLVESGGGLIQPGGSLRLSCAASGFTFNTYAMAWVRQAPGKGLEWVARIRSKYNNYATYYADSVKDRFTISRDDSKSTLYLQMNNLRAEDTAVYYCVRHGNFGDSYVSWFAYWGQGTLVTVSSGKPGSGKPGSGKPGSGKPGSQAVVTQEPSLTVSPGGTVTLTCRSSTGAVTTSNYANWVQQKPGQAPRGLIGGTNKRAPGTPARFSGSLLGDKAALTLSGAQPEDEAEYYCALWYSNLWVFGGGTKVTVL[human IgG1 Fc with C220S L234A L235A P329A T366W (EU numbers) cut from this listing]
notes: anti-TSPAN8/anti-CD3
In turn, B3 had an EC50 of 1.33 µg/mL.

B4: BTE-0079 (bispecific antibody)
heavy: QVQLVESGGGVVQPGGSLRLSCAASGFTFSSYGMHWVRQAPGKGLEWVAVIWYDGRNKYYADSVKGRFTISRDNSKNTLYLQMNSLRAEDTAVYYCTRDHSGSGSYYIDYWGQGTLVTVSSASTKGPSVFPLAPSSKSTSGGTAALGCLVKDYFPEPVTVSWNSGALTSGVHTFPAVLQSSGLYSLSSVVTVPSSSLGTQTYICNVNHKPSNTKVDKKVEPKSCDKTHTCPPCPAPEAAGGPSVFLFPPKPKDTLMISRTPEVTCVVVDVSHEDPEVKFNWYVDGVEVHNAKTKPREEQYNSTYRVVSVLTVLHQDWLNGKEYKCKVSNKALAAPIEKTISKAKGQPREPQVYTLPPSRDELTKNQVSLSCAVKGFYPSDIAVEWESNGQPENNYKTTPPVLDSDGSFFLVSKLTVDKSRWQQGNVFSCSVMHEALHNHYTQKSLSLSPGK
light: EIAMTQSPATLSVSPGERATLSCRASQSVSSNLAWYQQKPGQAPRLLIYGASTRATGLPARFSGSGSGTEFTLTISSLQSEDFAVYYCQQYNNFWTFGQGTKVEIKRTVAAPSVFIFPPSDEQLKSGTASVVCLLNNFYPREAKVQWKVDNALQSGNSQESVTEQDSKDSTYSLSSTLTLSKADYEKHKVYACEVTHQGLSSPVTKSFNRGEC
scFv-Fc: EVQLVESGGGLIQPGGSLRLSCAASGFTFNTYAMNWVRQAPGKGLEWVARIRSKYNNYATYYADSVKDRFTISRDDSKSTLYLQMNNLRAEDTAVYYCVRHGNFGDDYVSWFAYWGQGTLVTVSSGKPGSGKPGSGKPGSGKPGSQAVVTQEPSLTVSPGGTVTLTCRSSTGAVTTSNYANWVQQKPGQAPRGLIGGTNKRAPGTPARFSGSLLGDKAALTLSGAQPEDEAEYYCALWYSNLWVFGGGTKVTVL[human IgG1 Fc with C220S L234A L235A P329A T366W (EU numbers) cut from this listing]
notes: anti-TSPAN8/anti-CD3
Take B4: the EC50 was 0.22 µg/mL.

B5: BTE-0080 (bispecific antibody)
heavy: QVQLVESGGGVVQPGGSLRLSCAASGFTFSSYGMHWVRQAPGKGLEWVAVIWYDGRNKYYADSVKGRFTISRDNSKNTLYLQMNSLRAEDTAVYYCTRDHSGSGSYYIDYWGQGTLVTVSSASTKGPSVFPLAPSSKSTSGGTAALGCLVKDYFPEPVTVSWNSGALTSGVHTFPAVLQSSGLYSLSSVVTVPSSSLGTQTYICNVNHKPSNTKVDKKVEPKSCDKTHTCPPCPAPEAAGGPSVFLFPPKPKDTLMISRTPEVTCVVVDVSHEDPEVKFNWYVDGVEVHNAKTKPREEQYNSTYRVVSVLTVLHQDWLNGKEYKCKVSNKALAAPIEKTISKAKGQPREPQVYTLPPSRDELTKNQVSLSCAVKGFYPSDIAVEWESNGQPENNYKTTPPVLDSDGSFFLVSKLTVDKSRWQQGNVFSCSVMHEALHNHYTQKSLSLSPGK
light: EIAMTQSPATLSVSPGERATLSCRASQSVSSNLAWYQQKPGQAPRLLIYGASTRATGLPARFSGSGSGTEFTLTISSLQSEDFAVYYCQQYNNFWTFGQGTKVEIKRTVAAPSVFIFPPSDEQLKSGTASVVCLLNNFYPREAKVQWKVDNALQSGNSQESVTEQDSKDSTYSLSSTLTLSKADYEKHKVYACEVTHQGLSSPVTKSFNRGEC
scFv-Fc: EVQLVESGGGLIQPGGSLRLSCAASGFTFNTYAMNWVRQAPGKGLEWVARIRSKYNNYATYYADSVKDRFTISRDDSKSTLYLQMNNLRAEDTAVYYCVRHGNFGDSYVSWFDYWGQGTLVTVSSGKPGSGKPGSGKPGSGKPGSQAVVTQEPSLTVSPGGTVTLTCRSSTGAVTTSNYANWVQQKPGQAPRGLIGGTNKRAPGTPARFSGSLLGDKAALTLSGAQPEDEAEYYCALWYSNLWVFGGGTKVTVL[human IgG1 Fc with C220S L234A L235A P329A T366W (EU numbers) cut from this listing]
notes: anti-TSPAN8/anti-CD3
In turn, B5 displayed an EC50 of 1.18 µg/mL.

Usually EC50 stands for the concentration giving half of the maximal effect.
